Experimental data: patent US20240124575A1 (SIMCERE ZAIMING PHARMACEUTICAL, published 2024)

T1: murine CD33-His protein (murine, UniProt Q63994 18-240, limits assumed)
T1 construct: also called murine CD33 protein
T1 sequence (looked up): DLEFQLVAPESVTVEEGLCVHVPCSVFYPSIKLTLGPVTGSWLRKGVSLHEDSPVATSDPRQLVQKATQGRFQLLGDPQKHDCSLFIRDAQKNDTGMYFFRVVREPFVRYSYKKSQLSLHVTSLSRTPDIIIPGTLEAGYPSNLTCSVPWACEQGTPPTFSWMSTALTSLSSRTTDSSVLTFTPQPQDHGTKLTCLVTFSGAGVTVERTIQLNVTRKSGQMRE


Key:
[1] = biological target: T2, monkey CD33 protein (monkey); test: ELISA, coated monkey CD33, antibody 0.01 nM
T2 construct: The printed catalogue numbers for murine and monkey CD33 may be interchanged; also called monkey CD33-His protein

[2] = biological target: T2, monkey CD33 protein; test: ELISA, coated monkey CD33, antibody 0.1 nM
[3] = biological target: T2, monkey CD33 protein; test: ELISA, coated monkey CD33, antibody 0.001 nM
[4] = biological target: T3, monkey CD33 on HEK293T-monkey CD33 cells (monkey); test: FACS on HEK293T-monkey CD33 cells
T3 construct: whole, on cells

[5] = biological target: T2, monkey CD33 protein; test: ELISA, coated monkey CD33, antibody 10 nM
[6] = biological target: T2, monkey CD33 protein; test: ELISA, coated monkey CD33, antibody 0.0001 nM
[7] = biological target: T2, monkey CD33 protein; test: ELISA, coated monkey CD33, antibody 100 nM
[8] = biological target: T2, monkey CD33 protein; test: ELISA, coated monkey CD33, antibody 1 nM
[9] = biological target: T2, monkey CD33 protein; test: SPR (Biacore), antibody captured on Protein A chip, monkey CD33 protein as analyte
[10] = biological target: T1, murine CD33-His protein; test: ELISA on coated murine CD33-his
[11] = biological target: T4, human CD33-V-his (human, UniProt P20138 18-144); test: ELISA on coated human CD33-V-his
T4 construct: expressed in HEK293E; also called hCD33-V-his; human CD33 protein V-domain; not shown: His tag

[12] = biological target: T5, human CD33-His (human, UniProt P20138 18-259); test: SPR (Biacore), antibody captured on Protein A chip, human CD33-his as analyte
T5 construct: range 18-259; Bought protein; also called human CD33-his protein; hCD33-his; not shown: His tag

[13] = biological target: T6, human CD33-C2-his (human, UniProt P20138 136-260); test: ELISA on coated human CD33-C2-his
T6 construct: expressed in HEK293E; also called hCD33-C2-his; human CD33 protein C2-domain; not shown: His tag

[14] = biological target: T4, human CD33-V-his; test: ELISA on coated human CD33-V-his; remark: listed apart in the source

Binder | OD450 [1] | OD450 [2] | OD450 [3] | Max MFI [4] | OD450 [5] | OD450 [6] | OD450 [7] | OD450 [8] | EC50 [4] | Kd [9] | koff [9] | kon [9] | binding result [10] | binding result [11] | Kd [12] | koff [12] | kon [12] | binding result [13] | binding result [14]
S006-NB146-60 (Fc fusion, also called S006-NB146-60 VHH-Fc) EVQLVESGGGLVQAGGSLRLSCVASRSTSSLSLMSWHRQAPGEQRELVASITSGGKANYVDSVKDRFIMTRDDAKNTVYLQMNSLKPEDTAVYYCHAYDRAGTASGFGAAWGQGTQVTVSS[letters of human IgG1 Fc with changes left out] | 0.05 OD450 | 0.05 OD450 | 0.05 OD450 | 104 MFI | 0.06 OD450 | 0.05 OD450 | 0.06 OD450 | 0.05 OD450 |  |  |  |  |  |  |  |  |  |  | 
S006-NB146-39-aH9 (Fc fusion, also called humanized VHH-Fc) EVQLVESGGGLVQPGGSLRLSCAASGIILDYYPIGWFRQAPGKEREGVAFITNSDSSTIYTNYADSVKGRFTISRDKNSLYLQMNSLRAEDTAVYYCAARSTYIVGRNENALNSADYDYWGQGTMVTVSS[letters of human IgG1 Fc with changes left out] |  |  |  |  |  |  |  |  |  |  |  |  | no binding (tested: 100 nM) | no binding (tested: 100 nM) |  |  |  |  | 
S006-NB146-132 (Fc fusion) QVQLVESGGGLVQAGGSLRLSCAASGGTFVINAAWYHQAPGKQRELVANISYGGSTNYADRVAGRFAISRDNAKNTVYLQMNSLKPEDTGVYYCRLDPGLALNNRPLYYWGQGTQVTVSS[letters of human IgG1 Fc with changes left out] | 0.27 OD450 | 1.09 OD450 | 0.14 OD450 | 2130 MFI | 2.93 OD450 | 0.11 OD450 | 3.27 OD450 | 2.16 OD450 | 7.61 nM | 1.67 nM | 0.000362 s⁻¹ | 216000 M⁻¹ s⁻¹ |  |  |  |  |  |  | 
S006-NB146-39 (Fc fusion, also called S006-NB146-39 VHH-Fc) EVQLVESGGGLVQPGESLRLSCTAPGIILDYYPIGWFRQAPGKEREGVAFITNSDDSTIYTNYADSVKGRFTISREKNTVYLQMNSLKPEDTALYYCAARSTYIVGRNENALNSSDYDYWGQGTQVTVSS[letters of human IgG1 Fc with changes left out] | 0.07 OD450 | 0.21 OD450 | 0.06 OD450 | 2180 MFI | 2.89 OD450 | 0.06 OD450 | 3.09 OD450 | 1.95 OD450 | 5.92 nM | 0.118 nM | 6.98e-05 s⁻¹ | 590000 M⁻¹ s⁻¹ |  |  | 0.165 nM | 2.95e-05 s⁻¹ | 179000 M⁻¹ s⁻¹ |  | 
S006-NB146-17 (Fc fusion, also called S006-NB146-17 VHH-Fc) QVQLVESGGGLVQSGGSLRLSCAASGSIFTSDDMDYAMGWYRQASGKQREWVATITSDEDTNYGDSVKGRFTISRDSAKNTAFLQMNTLKPEDTAVYYCFANVRSDRSSLYRNYWGQGTQVTVSS[letters of human IgG1 Fc with changes left out] | 0.07 OD450 | 0.43 OD450 | 0.06 OD450 | 2290 MFI | 3.06 OD450 | 0.05 OD450 | 3.28 OD450 | 2.05 OD450 | 4.02 nM | 1.13 nM | 0.000128 s⁻¹ | 113000 M⁻¹ s⁻¹ |  |  |  |  |  |  | 
S006-NB146-3 (Fc fusion, also called S006-NB146-3 VHH-Fc) EVQVVESGGGLVQSGGSLRLSCAASGAIFTSNAMDYAMGWYRQVSGKQREWVATITSDDDTNYGDSAKGRFTISRDSAKNTAYLQMNSLKPEDTAVYYCFANVRSDRSTLYRNYWGQGTQVTVSS[letters of human IgG1 Fc with changes left out] | 0.11 OD450 | 0.33 OD450 | 0.06 OD450 | 2310 MFI | 2.33 OD450 | 0.06 OD450 | 3.33 OD450 | 1.38 OD450 | 4.71 nM | 15.1 nM | 0.000163 s⁻¹ | 10800 M⁻¹ s⁻¹ |  |  | 2.52 nM | 6.28e-06 s⁻¹ | 2490 M⁻¹ s⁻¹ |  | 
S006-NB146-40 (Fc fusion, also called S006-NB146-40 VHH-Fc) QVQLVESGGGLVQSGGSLRLSCAASGSIFTSNDMDYAMGWYRQVSGKQREWVATITSDEDTNYGDSVKGRFTISRDSAKNTAYLQMNSLKPEDTAVYYCFANLRSDRSTLYRNYWGQGTQVTVSS[letters of human IgG1 Fc with changes left out] | 0.06 OD450 | 0.34 OD450 | 0.06 OD450 | 2260 MFI | 2.4 OD450 | 0.05 OD450 | 2.78 OD450 | 2 OD450 | 4.48 nM | 183 nM | 0.000256 s⁻¹ | 1390 M⁻¹ s⁻¹ |  |  | 8.39 nM | 1.23e-05 s⁻¹ | 1460 M⁻¹ s⁻¹ |  | 
S006-NB146-20 (Fc fusion, also called S006-NB146-20 VHH-Fc) EVQLVESGGGSVQAGGSLRLSCGTPQSWFRLSSYVMNWYRQAPGKRRELVAEITQDDTTNYTPSVKGRFAISRDNANNTVHLQMNSLKPEDTAVYYCNTIQIWGQGTQVTVSS[letters of human IgG1 Fc with changes left out] | 0.11 OD450 | 0.66 OD450 | 0.07 OD450 | 2160 MFI | 2.92 OD450 | 0.06 OD450 | 3.05 OD450 | 2.23 OD450 | 2.79 nM | 0.548 nM | 0.000495 s⁻¹ | 902000 M⁻¹ s⁻¹ |  |  | 0.917 nM | 0.000377 s⁻¹ | 412000 M⁻¹ s⁻¹ |  | 
S006-NB147-225 (Fc fusion) EVQVVESGGGSVQPGGSLRLSCVASGFTFSNYAMSWVRQTPKKGLEWVAEINSGGDNTYYAYFVKGRFTISRDNAKNTLYLQMNSLKPEDTGTYYCAREEENAGTILQGQGTQVTVSS[letters of human IgG1 Fc with changes left out] | 0.06 OD450 | 0.06 OD450 | 0.06 OD450 | 86 MFI | 0.06 OD450 | 0.05 OD450 | 0.07 OD450 | 0.05 OD450 |  |  |  |  |  |  |  |  |  |  | 

The remaining lines, values ahead:

OD450 [1] | OD450 [2] | OD450 [3] | Max MFI [4] | OD450 [5] | OD450 [6] | OD450 [7] | OD450 [8] | EC50 [4] | Kd [9] | koff [9] | kon [9] | binding result [10] | binding result [11] | Kd [12] | koff [12] | kon [12] | binding result [13] | binding result [14] | Binder
0.16 OD450 | 0.63 OD450 | 0.1 OD450 | 1480 MFI | 2.78 OD450 | 0.1 OD450 | 3.22 OD450 | 2.15 OD450 | 237 nM | 1.08 nM | 0.000268 s⁻¹ | 249000 M⁻¹ s⁻¹ |  |  |  |  |  |  |  | S006-NB146-1 (Fc fusion, also called S006-NB146-1 VHH-Fc) EVQVVESGGGLVQAGGSLTLSCAASGNIENIQVMGWYRQAPGSQRALVAQINLSGLESTNYLDSVKERFTISRDYTKNAVYLRMNRLEPEDTAVYYCNARSYYGQYDYWGQGTQVTVSS[letters of human IgG1 Fc with changes left out]
 |  |  |  |  |  |  |  |  |  |  |  | no binding (tested: 100 nM) | no binding (tested: 100 nM) |  |  |  |  |  | S006-NB146-39-aH8 (Fc fusion, also called humanized VHH-Fc) EVQLVESGGGLVQPGGSLRLSCAASGIILDYYPIGWFRQAPGKEREGVAFITNSDDSTIYTNYADSVKGRFTISRDKNSLYLQMNSLRAEDTAVYYCAARSTYIVGRNENALNSADYDYWGQGTMVTVSS[letters of human IgG1 Fc with changes left out]
0.08 OD450 | 0.25 OD450 | 0.06 OD450 | 2150 MFI | 2.93 OD450 | 0.06 OD450 | 3 OD450 | 1.98 OD450 | 6.13 nM | 0.16 nM | 9.36e-05 s⁻¹ | 584000 M⁻¹ s⁻¹ |  |  | 0.171 nM | 3.39e-05 s⁻¹ | 198000 M⁻¹ s⁻¹ |  |  | S006-NB146-46 (Fc fusion, also called S006-NB146-46 VHH-Fc) QLQLVESGGGLVQPGGSLRLSCTAPGIVLDYYPIGWFRQAPGKEREGVSFITNSDDSTIYTNYADSVKGRFTISREKNTVYLQMNSLKPEDTAVYYCAARSTYIVGRNENALNASDYDYWGQGTQVTVSS[letters of human IgG1 Fc with changes left out]
 |  |  |  |  |  |  |  |  |  |  |  | no binding (tested: 100 nM) |  |  |  |  | no binding (tested: 100 nM) | no binding (tested: 100 nM) | S006-NB146-17-H9 (Fc fusion, also called humanized VHH-Fc) EVQLVESGGGLVQPGGSLRLSCAASGSIFTSDDMDYAMGWYRQAPGKQREWVATITSDEDTNYVDSVKGRFTISRDNAKNSAYLQMNSLKPEDTAVYYCFANVRSDRSSLYRNYWGQGTMVTVSS[letters of human IgG1 Fc with changes left out]

Read-outs that look alike come from different tables or passages of the source.
